Substitutions are numbered along the chain they refer to; changes in the protein carry UniProt numbers. The list shows a part of the results.
T1: RBFOX1 RRM (Homo sapiens, UniProt Q9NWB1 109-208)
T1 sequence: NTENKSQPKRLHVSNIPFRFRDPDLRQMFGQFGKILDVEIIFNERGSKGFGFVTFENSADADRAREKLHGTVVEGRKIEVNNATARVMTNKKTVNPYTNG

B1: CGUAAAC (DNA:RNA)
RNA: GGGAGACCGGAAUUCAGAUUGUCCCGUAAACUUAAAUCCCGUCGUAGCCACCA
DNA 1: CAATCTGAATTCCGGTCTCCC
DNA 2: TGGTGGCTACGACGGGATT
B2: CCUGUUC (DNA:RNA)
RNA: B1 RNA with G26C, A28G, A29U, A30U
DNA 1: CAATCTGAATTCCGGTCTCCC
DNA 2: TGGTGGCTACGACGGGATT
B3: CUUCUGU (DNA:RNA)
RNA: B1 RNA with G26U, A28C, A29U, A30G, C31U
DNA 1: CAATCTGAATTCCGGTCTCCC
DNA 2: TGGTGGCTACGACGGGATT
B4: GAAUGGC (DNA:RNA)
RNA: B1 RNA with C25G, G26A, U27A, A28U, A29G, A30G
DNA 1: CAATCTGAATTCCGGTCTCCC
DNA 2: TGGTGGCTACGACGGGATT
B5: GGGGCAA (DNA:RNA)
RNA: B1 RNA with C25G, U27G, A28G, A29C, C31A
DNA 1: CAATCTGAATTCCGGTCTCCC
DNA 2: TGGTGGCTACGACGGGATT
B6: GUCCCGU (DNA:RNA)
RNA: GGGAGACCGGAAUUCAGAUUGUCCGUCCCGUUUAAAUCCCGUCGUAGCCACCA
DNA 1: CAATCTGAATTCCGGTCTCCC
DNA 2: TGGTGGCTACGACGGGATT
B7: UCACCAU (DNA:RNA)
RNA: B6 RNA with G25U, U26C, C27A, G30A
DNA 1: CAATCTGAATTCCGGTCTCCC
DNA 2: TGGTGGCTACGACGGGATT
B8: AUUUGCC (DNA:RNA)
RNA: B1 RNA with C25A, G26U, A28U, A29G, A30C
DNA 1: CAATCTGAATTCCGGTCTCCC
DNA 2: TGGTGGCTACGACGGGATT
B9: CCUUAGA (DNA:RNA)
RNA: B1 RNA with G26C, A28U, A30G, C31A
DNA 1: CAATCTGAATTCCGGTCTCCC
DNA 2: TGGTGGCTACGACGGGATT
B10: GCAGGGU (DNA:RNA)
RNA: B6 RNA with U26C, C27A, C28G, C29G
DNA 1: CAATCTGAATTCCGGTCTCCC
DNA 2: TGGTGGCTACGACGGGATT
B11: CCCAUAG (DNA:RNA)
RNA: B1 RNA with G26C, U27C, A29U, C31G
DNA 1: CAATCTGAATTCCGGTCTCCC
DNA 2: TGGTGGCTACGACGGGATT
B12: GCUCCGC (DNA:RNA)
RNA: B6 RNA with U26C, C27U, U31C
DNA 1: CAATCTGAATTCCGGTCTCCC
DNA 2: TGGTGGCTACGACGGGATT
B13: UAAAAUU (DNA:RNA)
RNA: B1 RNA with C25U, G26A, U27A, A30U, C31U
DNA 1: CAATCTGAATTCCGGTCTCCC
DNA 2: TGGTGGCTACGACGGGATT
B14: UGGUCAU (DNA:RNA)
RNA: B1 RNA with C25U, U27G, A28U, A29C, C31U
DNA 1: CAATCTGAATTCCGGTCTCCC
DNA 2: TGGTGGCTACGACGGGATT
B15: UAUUGUG (DNA:RNA)
RNA: B1 RNA with C25U, G26A, A28U, A29G, A30U, C31G
DNA 1: CAATCTGAATTCCGGTCTCCC
DNA 2: TGGTGGCTACGACGGGATT
B16: CCGUACA (DNA:RNA)
RNA: B1 RNA with G26C, U27G, A28U, A30C, C31A
DNA 1: CAATCTGAATTCCGGTCTCCC
DNA 2: TGGTGGCTACGACGGGATT
B17: AGUUGAU (DNA:RNA)
RNA: B1 RNA with C25A, A28U, A29G, C31U
DNA 1: CAATCTGAATTCCGGTCTCCC
DNA 2: TGGTGGCTACGACGGGATT
B18: UGGGGGU (DNA:RNA)
RNA: B6 RNA with G25U, U26G, C27G, C28G, C29G
DNA 1: CAATCTGAATTCCGGTCTCCC
DNA 2: TGGTGGCTACGACGGGATT
B19: UUGUGAG (DNA:RNA)
RNA: B1 RNA with C25U, G26U, U27G, A28U, A29G, C31G
DNA 1: CAATCTGAATTCCGGTCTCCC
DNA 2: TGGTGGCTACGACGGGATT
B20: GAGCCCA (DNA:RNA)
RNA: B6 RNA with U26A, C27G, G30C, U31A
DNA 1: CAATCTGAATTCCGGTCTCCC
DNA 2: TGGTGGCTACGACGGGATT

Target: T1, RBFOX1 RRM
Test: EMSA; HiTS-Eq, 1 nM pool, 10 min; buffer printed only for the single-RNA assays: 10 mM Tris pH 7.5, 150 mM NaCl, 3.4 mM EDTA, 0.001% NP-40, 30 C
Conditions: tags: His6 N-terminal (pET28a); label: 5' 32P
How it was run: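 Relative association constants, normalised to the cognate motif, were derived by comparing read counts of each RNA species with those of the control reaction. The RNA sequenced was the free fraction, separated by 8% native PAGE after a 10 min equilibration in 50 µL of 1 nM 5′-radiolabelled RNA (7 randomized nucleotides) with increasing concentrations of purified wild-type or mutant RbFox RRM.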

Binder | binding signal
B1 | 0.00197 KA relative to UGCAUGU
B2 | 0.0105 KA relative to UGCAUGU
B3 | 0.0178 KA relative to UGCAUGU
B4 | 0.0189 KA relative to UGCAUGU
B5 | 0.032 KA relative to UGCAUGU
B6 | 0.00957 KA relative to UGCAUGU
B7 | 0.000425 KA relative to UGCAUGU
B8 | 0.00754 KA relative to UGCAUGU
B9 | 0.00753 KA relative to UGCAUGU
B10 | 0.01 KA relative to UGCAUGU
B11 | 0.000272 KA relative to UGCAUGU
B12 | 0.0135 KA relative to UGCAUGU
B13 | 0.00426 KA relative to UGCAUGU
B14 | 0.0144 KA relative to UGCAUGU
B15 | 0.0249 KA relative to UGCAUGU
B16 | 0.0046 KA relative to UGCAUGU
B17 | 0.0101 KA relative to UGCAUGU
B18 | 0.0229 KA relative to UGCAUGU
B19 | 0.0152 KA relative to UGCAUGU
B20 | 0.00799 KA relative to UGCAUGU

From paper PMC9911399, “Two distinct binding modes provide the RNA-binding protein RbFox with extraordinary sequence specificity”
